Measurements reported in the supplement of paper PMC11417369.
The other results are listed elsewhere or left out.

tested on: PfAP2-HC AP2 domain (GST-tagged); assay: gcPBM binding intensity (ln(normalized median fluorescence intensity)); higher = stronger DNA binding
Summary of the method: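 Probes on an Agilent 4 × 180k array were primer-extended, double-stranded and 36 bp long, taken from intergenic genomic regions, with negative controls added. GST-tagged P. falciparum DNA-binding domains from E. coli, about 25 μg on average, were applied to the array for 1 h in 1× PBS containing 1% milk, 0.2 mg/ml BSA, 0.5% salmon testes DNA and 0.03% Triton X-100. Binding intensity, obtained after Alexa488 anti-GST antibody detection and a 488 nm scan, is the highest Masliner-normalised natural-log median intensity across replicate spots of either probe orientation.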

Sequence | gcPBM binding intensity (ln)
ATGTGTGTATACATCAATTATATATATATTATGTAT [GTGCAC_negctrl_site720] | 10
AAAATAAAAATAACAACACACATATACTATAATATT [CACACA_site2769] | 10.8
TATGTTAAAAAAAAATGTACATATGTTTTTGTTAAA [XGTACX_site4754] | 9.44
AAATGAATAATGATATACAAACAAATCATGTGTTAA [XGTACX_negctrl_site150] | 9.72
GACCCATTATTTTATTGTACTTTTATTATAACGTGA [XGTACX_site156] | 9.8
ATACATTCAAAATATACACACATATATATATAATAT [CACACA_site950] | 9.86
TTTCCCCCATATAATGAACACACACCCTCCTCATAA [CACACA_site8110] | 10.1
ATTTTTTTTAATTTGTACAAATTTTGTTCACAATTT [CACACA_negctrl_site1301] | 9.8
TACCATGTTCAAATTACACACATATAATCTAATATA [CACACA_site2008] | 9.7
TTTATTATTATATTATTTTAATTTTTCTTTAGTACA [GTGCAC_negctrl_site392] | 9.49
CATTTCATTTCTTAATGTACTTTATTCCACCACATA [XGTACX_site5943] | 9.65
ATAAATATATGAAGTTGTACAAATAATTAACATTAT [XGTACX_site5740] | 9.94
AAATTAAATAAATTTACACACTAAAAATTACATATA [CACACA_site1054] | 9.6
TTATATATGTATTAATGTACATAGTTGAGAAAGGTA [XGTACX_site1511] | 9.71
AAAGGGACATATATATCACACACAAAAATTAGTCCC [CACACA_site8897] | 10
TAATATCTACATATATGTACATATATATATATATAT [XGTACX_site7979] | 9.97
GGAAGCTAATTACACACATGCATATTTTTTTTTCAA [TGCATGCA_site548] | 9.87
ATAATATAGAACAATACATGCAAATGGCTTAAATTT [TGCATGCA_site521] | 9.79
ATGGGACAGATATATACACACATATAAATATAAATA [CACACA_site6684] | 10
ATGTTATATTATAAAAGTACATTTTATTTTTATTTA [XGTACX_site4365] | 9.61
ATTTCCTTTTTCTGTTGTACTCATAAAATAATATGT [XGTACX_site7234] | 9.82
GTTAAGTGTATATATACACACATATGTAATACATGA [CACACA_site3048] | 9.95

Sequence | gcPBM binding intensity (ln)
ATATGTAGAATAAAAAAAAAAAAAAAAAAAAAAAAT [CACACA_negctrl_site621] | 9.64
TAATTAAAATTATATATTAGAAAAAACATATAAAAC [CACACA_negctrl_site190] | 9.56
TAAAAATATATGTATACACACATATATATATATATA [CACACA_site3951] | 9.79
AAAAAAAGTGACTCCTTACACACTTTACATAATTTA [CACACA_site820] | 9.63
AATATTGAAATAACGCGTACAAAAAAAAGTTATATT [XGTACX_site6559] | 9.99
AATGAAATAATACAATGTACGTTAAAAAAAAATAAA [XGTACX_site7928] | 9.69
TAATATCAAACCTATAGTACATAAGGTATAAAAAAG [XGTACX_site3533] | 9.72
GTATTATTTTATGATGCATGTGTATTTCATATATGC [TGCATGCA_site660] | 9.87
AATATAACTTTTTGCACACTTAATTTTTTTTTTTAA [CACACA_site3365] | 10
TAACAAAAAGCACTTAGTACATATATATATATATAT [XGTACX_site1099] | 10.1
TATATTTATTATAACACACACATATTTATATTATAG [CACACA_site6628] | 9.9
TTTCTTTTTAAATATATACACACCGGGTGTACATAT [CACACA_site3345] | 9.89
AGGTAATATACTAAATGTACAGAAAAACGAATTTTT [XGTACX_site2977] | 9.7
ACTTCCTATATTTATGCATGCATTTTATTAAAAAAT [TGCATGCA_site747] | 9.88
ATATATCATGAACCTTGTACGTATATATATATATAT [XGTACX_site239] | 9.8
TATACAATATTTATAACACACATATTTATATAAACT [CACACA_site6932] | 9.73
AGAACATTTTCTCAGTGTACTTATATATTTGACATA [XGTACX_site6541] | 9.61
ACTAAACAATATGTATGTACATATTTTACATATAAT [XGTACX_site3318] | 9.79
TACAGACAGAAACACACACACACGCATAAAAAAAAA [CACACA_site1514] | 10.5
TAATAATAACCGTTATGTACACAATTTTGTGAACAT [XGTACX_site8053] | 9.6
GATGGAATCTAATTTACATGCAGTGATATAATAAAT [TGCATGCA_site1031] | 9.55
ATTTATTTATTTATATGTACATATATATATATATAT [XGTACX_site339] | 9.95

Sequence | gcPBM binding intensity (ln)
AAAGTTTTAAGAAAATGTACATAAGTATACATATAT [XGTACX_site1293] | 9.66
TTTTTCTATTCCATTCAACACACAAAAATGTATGCT [CACACA_site8268] | 9.88
TGCATTTTACTTGTTACACACATATAAAATTAACCA [CACACA_site7387] | 9.74
ATTCTTGTTATATAAGGTACAGAACAAAATATAAAA [XGTACX_site5510] | 9.61
TTTGGGATAAAACAAAGTACTAACAAAATATATAAT [XGTACX_site8240] | 9.64
AAATGGAGTTAATATTGTACATATATATATATATAT [XGTACX_site5452] | 9.76
TTTTTTTTTTTTTTAACACACATATAAATATTTTTC [CACACA_site6985] | 9.56
TTTTATTATATGGAGGTGCATATATAATAATATAAT [GTGCAC_site9477] | 9.47
ATCGGTAATATTAACACACACATTTATTTATATTTA [CACACA_site6638] | 10.1
TTCTTTTTAAATATACTAATTATGTATAAAACAGAA [GTGCAC_negctrl_site131] | 9.34
ATGTATGTAATAAAAAGTACATATGTTCATAATAAA [XGTACX_site842] | 10.1
TTTTATAAATATTTTTGTACACATTTAAATATTATT [XGTACX_site4973] | 9.51
TTTTCATATATTTATTGTACATATTACATATATAAT [XGTACX_site2425] | 9.85
ATTTATAAATCAAAGTGTACATATGTTTTATTTTTT [XGTACX_site804] | 9.83
AGAGAGAACGGTATAACATGCAATAAATTTCAGAAG [TGCATGCA_site423] | 9.6
TTTTTTTAATAAAAGTGTACCAAATTATATACACAT [XGTACX_site6811] | 9.65
AACACATACATATATGCACACATTTTATTCCATTAT [CACACA_site2834] | 10.1
TTTTTTTTTTTTTGTACATGCAAATATTATGAACAC [TGCATGCA_site571] | 9.56
GACAAATTAATCGATTGTACACAATTTGTTTCGTTG [XGTACX_site35] | 9.8
TTCACATATATATAACGTACATTATTATTATTCTGA [XGTACX_site6006] | 9.63
TTTTTTTTTCCTTCTTGTACATATTATATATACATA [XGTACX_site5988] | 9.7
TGGAACGTAATAAAATGTACATACGTTTTTCATATG [XGTACX_site6229] | 9.73

Sequence | gcPBM binding intensity (ln)
TCTTATTTAATTAAACAAAAGAAAAAGAAAGAAAAG [CACACA_negctrl_site1569] | 9.43
TACAAGTATAAATAAGCACACATGTGTATATGTACA [CACACA_site7911] | 10
TTAGAAGGGATTAAAGTGCAAAATAGGATTAGAGTA | 9.76
GTTTTACACAGACATGCATGTGAAAATTTGATGGTA [TGCATGCA_site308] | 9.85
TATCATCATGTATGTACACACATACCTATATTATGT [CACACA_site6768] | 10.2
TTTATTTCTATATTTACATGCAAAGGGTTAGTTATA [TGCATGCA_site983] | 9.46
TTTTTTTTTTTCATGTGTACATATATTTTCACTTTA [XGTACX_site4475] | 9.76
GATCTTTTTTTTCTTACTTTACAATTTTTTTTTTAC [XGTACX_negctrl_site101] | 9.73
AAGAAAAAGAATAGACGGACAACTAATATAAAATAT [XGTACX_site7905] | 9.8
AAAATAACAAAATAAAGTACTTTTAAAAGATATAAT [XGTACX_site7632] | 9.84
GATTTTCTAATTTCTACACACATATAAGAATATTCA [CACACA_site7340] | 9.7
TTTTTAATTCAAACAATAATATGTTATATTTCAAAT [TGCATGCA_negctrl_site27] | 9.44
TGTATAAAACATGGGTGTACTGAACTCAATCATATA [XGTACX_site1215] | 9.61
TAAAATTATATAAAGGAACACACATTTTATTTTATT [CACACA_site8423] | 9.68
AATATATTTTAATATACACACATATCTGCTCTTTAA [CACACA_site6130] | 9.8
TCATTGTTAAGCTGAAGTACTTATAATTACATCGAG [XGTACX_site6340] | 9.45
TATTAGCATGTTATTACACACAATATAAAATATATA [CACACA_site1401] | 9.66
TGTCAATCATATAAATGTACATTTTAAATGAGGTGT [XGTACX_site7391] | 9.62
GAAAAGAAAAATAAACGTACATAAATATTAACATTA [XGTACX_site8213] | 9.61
CAAATAAAAATAAGGAGTACAATTAAAAAAGGAAGG [XGTACX_site4366] | 9.8
AAAATAAAAAAGTGTACACATATTAAAATGTATTTA [CACACA_site4424] | 9.76
ATTATATAAATTATATGTACGTATTTTTTTTTTTTT [XGTACX_site1908] | 9.62
